This is one part of the list. The list includes weakly bound sequences.
What follows are sequences tested against MaxL homodimer (UniProt P61244) (assay: universal protein-binding microarray (PBM)). Conditions: PBS-based mixture, 10 nM His-tagged protein dimer, 2% milk, 200 ng/uL BSA, 50 ng/uL salmon testes DNA, 0.02% TX-100; detection with Alexa 488 anti-His …; high values mean tight binding; most listed sequences are background and not binding sites; double strand, one strand shown.
Chain of UniProt P61244 (P61244 whole entry): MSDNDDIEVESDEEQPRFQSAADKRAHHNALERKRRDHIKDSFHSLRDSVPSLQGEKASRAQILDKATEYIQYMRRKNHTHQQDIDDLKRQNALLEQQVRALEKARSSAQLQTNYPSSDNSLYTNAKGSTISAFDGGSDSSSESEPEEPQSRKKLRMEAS

Sequence | binding signal (normalized occupancy)
CCCCCAGG | 0.0775
CGATTACA | 0.0781
CAAATTAG | 0.076
GTACCTAC | 0.0731
ATTCAGAG | 0.0746
GTACTGAA | 0.0753
ACCTATGC | 0.0814
GCCTTGAA | 0.0743
AGTTGCTA | 0.0827
CGCGGAAA | 0.0721
AGGGTCTG | 0.0713
CGTTCTGA | 0.0731
CACTTCGC | 0.0739
AGTTCTAT | 0.0745
AGGCGTGA | 0.0829
ACGAAGTA | 0.0701
AGGCACGG | 0.0755
GTGACCAC | 0.0905
CCGCGCCC | 0.0711
ACTTATCA | 0.0772
CGGATGAA | 0.0745
AGGATAGG | 0.0757
ATGTGACG | 0.0922
CATGGAGG | 0.0891
GTACGTCA | 0.0774

Sequence | binding signal (normalized occupancy)
CAACCCGG | 0.0721
CCTACTCG | 0.0731
AACATTAA | 0.0766
GTCGTATA | 0.0753
ACAAACCC | 0.0812
AGGCTGTG | 0.0774
AATCACGA | 0.0856
AGTAAAGG | 0.0777
GGGATCCA | 0.0773
CGGGTCTC | 0.0802
CCTCCATA | 0.0757
AATTAGCG | 0.0757
CATGGCAG | 0.0887
CCATGATC | 0.0848
GCTGTCCA | 0.0722
GTATCCAA | 0.0804
AAGAACAT | 0.08
AGCCCGTA | 0.0701
ATCGTCGA | 0.0747
CGGAAACC | 0.0708
CCTGCTTC | 0.0796
ACAGGAAT | 0.0733
CACTTGCG | 0.0708
AGTCGACA | 0.0694
CTCCCATC | 0.0791

Sequence | binding signal (normalized occupancy)
CGCTTAAA | 0.0748
CGTGGCCA | 0.0949
GATCCGGC | 0.0715
AACCTAAT | 0.0761
GAAAGTCC | 0.0715
AGCTTGGG | 0.067
CGATTTCA | 0.072
CAAGAAGA | 0.0723
AGCGCGAG | 0.0756
GCTGATAA | 0.0726
ATCCTCAG | 0.0715
ATACCAGG | 0.0785
TCAATAAA | 0.0772
GACAACGA | 0.0756
ACGTAACG | 0.0807
GCCGGAAA | 0.0673
CAAAAAAC | 0.0728
ATGTTAGA | 0.087
CTCCCTCC | 0.0789
CTGGCGTA | 0.0703
ACGCCTCC | 0.0771
CAAGAAAA | 0.0705
CGTGGATC | 0.0908
GGGGGTAA | 0.0894
GAATTAGC | 0.0687

Sequence | binding signal (normalized occupancy)
AAGAGATT | 0.0754
ACCGCGCT | 0.0774
CGAGCGCG | 0.0726
GAAATCAA | 0.075
ACCTCCCC | 0.0791
ACAACTGT | 0.0734
AGTCGGAG | 0.0653
TGACCTAA | 0.0776
CCGCCGCG | 0.0721
ATCTGTCC | 0.0767
GCGCTTCA | 0.0716
CGCCCTTC | 0.0703
GTACACGA | 0.0882
CAAAATGG | 0.0769
AAGGCGGA | 0.0681
CCGCGACG | 0.0667
GTATGGTA | 0.086
GAGAGCAC | 0.0743
GTTCTCGA | 0.0775
CATCAACA | 0.0833
ATGCAGCG | 0.0789
CCTTGCTA | 0.0757
AGATCAAC | 0.0743
CGATCGGC | 0.0727
CAGATACG | 0.0757

Sequence | binding signal (normalized occupancy)
AACTACTT | 0.0708
TAGGAAAA | 0.0729
CGCAAACC | 0.0692
AACCGGTC | 0.0695
ATATTACA | 0.0825
GCGTCGAC | 0.0729
ATTTCACA | 0.0827
CCTCGGAA | 0.0713
CAAGTATG | 0.0761
GACAGAGA | 0.0724
AATGACGG | 0.0719
GACTTGTA | 0.0839
CTCCCCTC | 0.0763
AGATCAAT | 0.0763
AATTAACC | 0.0744
AGGTCGAT | 0.0683
AGCAGGAC | 0.0719
ATTTGACA | 0.0756
GACCATGA | 0.0823
CCCCTCCG | 0.0772
GGCACTAC | 0.0766
ATGAGTAC | 0.0839
GTAGATAC | 0.0776
AGAGTATA | 0.0769
GTCTGCCA | 0.0726

Sequence | binding signal (normalized occupancy)
AAGACGCA | 0.0721
AAGTGGTG | 0.0758
GCGCTGAA | 0.0703
CACTTTTA | 0.0728
AGTCAGTG | 0.0718
AACACCCA | 0.0814
CGGTGTAA | 0.0769
AAGACCTA | 0.0715
AGTGCGCG | 0.0797
AATGCCGA | 0.0701
TATCCATA | 0.0866
GCGAGGAA | 0.0761
CTCATAAG | 0.0817
AGCTTGAC | 0.0693
GACTTAAA | 0.0714
GTAATCAA | 0.0769
CATTAAAA | 0.0734
CGGCGCAC | 0.076
ACAGCAAC | 0.0753
CCCATAAA | 0.0795
CAGGGTGG | 0.079
AAATCCAC | 0.0779
ACCAGCAG | 0.0754
CAAATGGG | 0.0805
CTATCAAC | 0.074

Sequence | binding signal (normalized occupancy)
CACTAGGG | 0.0765
ATGCCGAA | 0.073
GTAACATA | 0.0804
CAATGGGA | 0.0724
CGGGATCA | 0.0802
AATATTCC | 0.0758
GGCAATGA | 0.0794
AACTTGTA | 0.0732
TAGGGCGA | 0.0729
CACTGGCC | 0.0739
ACCAATCT | 0.0745
TTGCTAAA | 0.0733
GAAAGTTC | 0.0678
AAGCTCTG | 0.0679
CGGTAGGC | 0.0683
CCTTGGTC | 0.0668
CACCTGGC | 0.103
GCTTACAC | 0.0745
CTCACGTC | 0.0821
AGTGCTAT | 0.0853
ACACTTTG | 0.0764
GCTCGCTA | 0.0764

Reference: paper PMC4242493
